Measurements reported in PubChem BioAssay AID686979 (National Center for Advancing Translational Sciences (NCATS), 2013).
Out of some 420,000 compounds screened, about 50,000 (12%) were called active. This list was built around the results that the source calls inconclusive (neither active nor inactive); the mix of calls is not that of the screen. Calls follow the shape of the dose curve; as a rule, active = well fitted inhibition curve with a large enough effect; inconclusive = small, poorly fitted or top-dose-only effect; inactive = flat fitted curve, though single readings scatter. No potency is given beside an inconclusive call; the fits are too rough.

Assay: qHTS for Inhibitors of human tyrosyl-DNA phosphodiesterase 1 (TDP1): qHTS in cells in presence of CPT; also: nearly all actives have a fitted effect of over 55% in size
Conditions: chicken DT40 Tdp1-/-;hTDP1 cells + 20 nM CPT, ATP luminescence, 48 h; series mostly up to 46.2 µM
Outline: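 Chicken DT40 Tdp1-/- cells stably complemented with human TDP1 were seeded at 400 cells/well in medium containing 20 nM camptothecin, exposed to pin-transferred compounds, and grown at 37 °C for at least 48 hr. Viability was read as ATP luminescence.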
Potency is read from the fitted curve at half-maximal effect; tags tell the direction and shape of the fitted curve.

Row | Structure (SMILES) | Potency
1 | CC(C)C[C@@]12C(=O)N(c3cccc(F)c3)C(=O)N1[C@H](c1ccc(Br)cc1)[C@@H]1C(=O)N(C(C)(C)C)C(=O)[C@@H]12 | inconclusive [inhibitor, single point]
2 | COc1ccc(C(=O)NC(=S)NNC(=O)c2ccc3ccccc3n2)cc1 | inconclusive [inhibitor, single point]
3 | COc1ccc(Nc2ncc(C(=O)N3CCN(c4cccc(Cl)c4)CC3)c3ccccc23)cc1 | active: 14.6 µM
4 | CN(Cc1cnc2ccccn12)C(=O)c1cc(NC(=O)c2ccccc2)cc2ncn(C3CCCC3)c12 | inconclusive [inhibitor, single point]
5 | Cc1ccc(C)c(-n2c(CCC(=O)O)ccc2-c2ccc(Cl)cc2)c1 | inconclusive [inhibitor, single point]
6 | Cc1cccc(NC(=O)CSc2nc(-c3ccccc3)cn2-c2ccccc2)c1C | inconclusive [inhibitor, single point]
7 | CCOC(=O)[C@@H]1[C@H]2COc3cc(OC)ccc3[C@@H]2N2C(=O)N(c3ccc(F)cc3)C(=O)[C@]12C | inactive
8 | COC(=O)c1ccccc1NC(=O)COC(C)=O | inconclusive [inhibitor, single point]
9 | CCOC(=O)C(CC1=CS(=O)(=O)c2ccc(Cl)cc21)(NC(C)=O)C(=O)OCC | inactive
10 | CCOc1ccc(NS(=O)(=O)c2cc3c(cc2C)N(C)CCO3)cc1 | active: 20.6 µM
11 | COc1cc(/C=N/NC(=O)COc2c(C)cc([N+](=O)[O-])cc2C)ccc1OC(=O)c1ccccc1 | active: 13 µM
12 | Cc1ccc(C(C)C)c(OCC(=O)Nc2ccc(C(=O)OC3CCCCC3)cc2)c1 | inconclusive [inhibitor, single point]
13 | CC(C)CC(C(=O)NCc1ccc(F)cc1)N1Cc2ccccc2C1=O (stereo not given) | inconclusive [inhibitor, single point]
14 | Cc1ccc(CN(Cc2cccnc2)C(=S)Nc2cccc(Cl)c2C)cc1 | inconclusive [inhibitor, single point]
15 | CCc1ccc2ncc3c(-c4ccc(F)cc4)nn(CC(=O)NCc4ccccc4)c3c2c1 | inactive
16 | O=C(/C=C/c1ccco1)NCc1ccccn1 | inactive
17 | O=C(C[n+]1c(Cl)ccc2ccccc21)c1ccc2ccccc2c1 | inactive
18 | Cc1nc(-c2cccnc2)sc1C(=O)Nc1ccc(C(F)(F)F)cc1 | inconclusive [inhibitor, single point]
19 | CN1CCN(C(=O)c2cc(Br)cn2C)CC1 | inactive
20 | CN(C)Cc1ccccc1-c1ccc2ncnc(NCc3ccccc3)c2c1 | inconclusive [inhibitor, single point]
21 | Cc1nc(C)c(-c2ccc(SCC(=O)Nc3ccc(C)c(F)c3)nn2)s1 | inactive
22 | Cc1ccc(/C=C/c2onc(C)c2S(=O)(=O)N2CCC(C(=O)NCc3ccc(C)o3)CC2)cc1 | inconclusive [inhibitor, single point]
23 | COc1ccc(CNC(=O)Cc2ccc(NC(=O)C3=C(C)OCCS3)cc2)cc1 | active: 2.31 µM

Row | Structure (SMILES) | Potency
24 | Cc1nc(C)c(-c2csc(Nc3cccc(O)c3)n2)s1 | inconclusive [inhibitor, single point]
25 | O=C(CNc1ccccc1)c1ccc([N+](=O)[O-])cc1 | active: 14.6 µM
26 | CCOC(=O)C1=C(C)N=c2s/c(=C\c3cccn3C)c(=O)n2C1c1cccc(OC)c1OC (stereo not given) | inconclusive [inhibitor, single point]
27 | O=C(c1ccco1)N1CCN(C(=O)c2ccccc2OCc2ccc(Cl)cc2)CC1 | inconclusive [inhibitor, single point]
28 | CC(C)[C@@H]1NC(=O)c2cc([N+](=O)[O-])cc(I)c2NCCC[C@@H](C(=O)NC(CC(=O)O)C(N)=O)NC(=O)[C@H](CO)NC1=O (stereo not given in full) | inactive
29 | O=C(Cn1cnc2c(NC(=O)OCc3ccccc3)ncnc21)NCc1ccccn1 | inactive
30 | COc1cc(SC)ccc1C(=O)NCCOc1ccccc1Cl | inactive
31 | CCc1nnc(SCc2nc(-c3ccc(OC)c(OC)c3)oc2C)c2cc3sc(C)cc3n12 | inconclusive [inhibitor, single point]
32 | Cc1cccc(NC(=S)NNC(=O)CCn2cc(C)cn2)c1 | inactive
33 | Cc1cc(=O)n2c(n1)NC(Nc1cccc(C)c1C)=NC2c1ccc(F)cc1 (stereo not given) | inactive
34 | Cc1ccc(C(=O)N/N=C/C2=Cc3ccccc3OC2C)cc1 (stereo not given) | inconclusive [inhibitor, single point]
35 | Cc1cccc(NC(=S)NC2CC3CCCC(C2)N3Cc2ccco2)c1 (stereo not given) | inconclusive [inhibitor, single point]
36 | COc1cccc(C(=O)NC(=S)Nc2ccc(N3CCCC3)cc2)c1 | inconclusive [inhibitor, single point]
37 | COCC(C)n1c(C)cc(C(=O)COC(=O)/C=C/c2cccc(F)c2)c1C (stereo not given) | inconclusive [inhibitor, single point]
38 | COc1cc(/C=C/C(=O)N2CCOCC2)ccc1OCc1ccccc1 | inconclusive [inhibitor, single point]
39 | COc1ccc(CNC(=O)C(=O)NCCC2CCCCN2S(=O)(=O)c2ccc(C)cc2)cc1 (stereo not given) | active: 16.4 µM
40 | O=C(N/N=C/c1cc(Br)c(Br)o1)c1cc2ccccc2o1 | inconclusive [inhibitor, single point]
41 | CSc1nc(Cl)c(C#N)c(-c2ccc(C)cc2)n1 | active: 9.2 µM
42 | O=C(Nc1ccc(N2CCOCC2)cc1)c1ccncc1 | inactive
43 | O=[N+]([O-])c1ccc(C(O)CSC(=S)N2CCCCC2)cc1 (stereo not given) | inconclusive [inhibitor, single point]
44 | Cc1ccc(-c2cn3cccc(C)c3n2)cc1 | inactive
45 | CCOC(=O)N1CCN(C(=O)COc2ccc(S(=O)(=O)Nc3ccc(OCC)cc3)cc2)CC1 | inconclusive [inhibitor, partial curve]
